{
  "source": "the supplement of paper PMC8728848",
  "binders": {"B1": {"name": "mLPHN-1 (Mus musculus), Q80TR1 (protein)", "chain": "MARLAAALWSLCVTTVLVTSATQGLSRAGLPFGLMRRELACEGYPIELRCPGSDVIMVENANYGRTDDKICDADPFQMENVQCYLPDAFKIMSQRCNNRTQCVVVAGSDAFPDPCPGTYKYLEVQYDCVPYIFVCPGTLQKVLEPTSTHESEHQSGAWCKDPLQAGDRIYVMPWIPYRTDTLTEYASWEDYVAARHTTTYRLPNRVDGTGFVVYDGAVFYNKERTRNIVKYDLRTRIKSGETVINTANYHDTSPYRWGGKTDIDLAVDENGLWVIYATEGNNGRLVVSQLNPYTLRFEGTWETGYDKRSASNAFMVCGVLYVLRSVYVDDDSEAAGNRVDYAFNTNANREEPVSLAFPNPYQFVSSVDYNPRDNQLYVWNNYFVVRYSLEFGPPDPSAGPATSPPLSTTTTARPTPLTSTASPAATTPLRRAPLTTHPVGAINQLGPDLPPATAPAPSTRRPPAPNLHVSPELFCEPREVRRVQWPATQQGMLVERPCPKGTRGIASFQCLPALGLWNPRGPDLSNCTSPWVNQVAQKIKSGENAANIASELARHTRGSIYAGDVSSSVKLMEQLLDILDAQLQALRPIERESAGKNYNKMHKRERTCKDYIKAVVETVDNLLRPEALESWKDMNATEQVHTATMLLDVLEEGAFLLADNVREPARFLAAKQNVVLEVTVLNTEGQVQELVFPQEYPSENSIQLSANTIKQNSRNGVVKVVFILYNNLGLFLSTENATVKLAGEAGTGGPGGASLVVNSQVIAASINKESSRVFLMDPVIFTVAHLEAKNHFNANCSFWNYSERSMLGYWSTQGCRLVESNKTHTTCACSHLTNFAVLMAHREIYQGRINELLLSVITWVGIVISLVCLAICISTFCFLRGLQTDRNTIHKNLCINLFLAELLFLVGIDKTQYEVACPIFAGLLHYFFLAAFSWLCLEGVHLYLLLVEVFESEYSRTKYYYLGGYCFPALVVGIAAAIDYRSYGTEKACWLRVDNYFIWSFIGPVSFVIVVNLVFLMVTLHKMIRSSSVLKPDSSRLDNIKSWALGAIALLFLLGLTWAFGLLFINKESVVMAYLFTTFNAFQGVFIFVFHCALQKKVHKEYSKCLRHSYCCIRSPPGGTHGSLKTSAMRSNTRYYTGTQSRIRRMWNDTVRKQTESSFMAGDINSTPTLNRGTMGNHLLTNPVLQPRGGTSPYNTLIAESVGFNPSSPPVFNSPGSYREPKHPLGGREACGMDTLPLNGNFNNSYSLRSGDFPPGDGGPEPPRGRNLADAAAFEKMIISELVHNNLRGASGGAKGPPPEPPVPPVPGVSEDEAGGPGSADRAEIELLYKALEEPLLLPRAQSVLYQSDLDESESCTAEDGATSRPLSSPPGRDSLYASGANLRDSPSYPDSSPEGPNEALPPPPPAPPGPPEIYYTSRPPALVARNPLQGYYQVRRPSHEGYLAAPSLEGPGPDGDGQMQLVTSL"}},
  "experiment_in_all_cases": "glycan array binding signal (z-score within array); higher = stronger binding",
  "conditions_in_all_cases": "glycan notation: IUPAC condensed, linker removed",
  "key": {"[1]": {"target": "Neu5Ac(a2-6)Gal(b1-4)GlcNAc", "summary_of_the_method": "(§1)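 The binding signal is a Z-score computed within each array. Data were drawn from 3228 arrays in the Consortium for Functional Glycomics database, restricted to those with a known protein sequence. Scores were averaged over arrays of the same protein sequence at different concentrations or buffers, and over linkers, and negative values can be taken as non-binding.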"}, "[2]": {"target": "Neu5Ac(a2-6)Gal(b1-4)GlcNAc(b1-2)Man(a1-3)[Gal(b1-4)GlcNAc(b1-2)Man(a1-6)]Man(b1-4)GlcNAc(b1-4)GlcNAc", "summary_of_the_method": "as §1"}, "[3]": {"target": "Neu5Ac(a2-6)Gal(b1-4)GlcNAc(b1-2)Man(a1-3)[GlcNAc(b1-2)Man(a1-6)]Man(b1-4)GlcNAc(b1-4)GlcNAc", "summary_of_the_method": "as §1"}, "[4]": {"target": "Neu5Ac(a2-6)Gal(b1-4)GlcNAc(b1-2)Man(a1-3)[GlcNAc(b1-2)Man(b1-4)GlcNAc(b1-2)Man(a1-6)]Man(b1-4)GlcNAc(b1-4)GlcNAc", "summary_of_the_method": "as §1"}, "[5]": {"target": "Neu5Ac(a2-6)Gal(b1-4)GlcNAc(b1-2)Man(a1-3)[Neu5Ac(a2-6)Gal(b1-4)GlcNAc(b1-2)Man(a1-6)]Man(b1-4)GlcNAc(b1-4)GlcNAc", "summary_of_the_method": "as §1"}, "[6]": {"target": "Neu5Ac(a2-6)Gal(b1-4)GlcNAc(b1-2)Man(a1-6)[Gal(b1-4)GlcNAc(b1-2)Man(a1-3)]Man(b1-4)GlcNAc(b1-4)GlcNAc", "summary_of_the_method": "as §1"}, "[7]": {"target": "Neu5Ac(a2-6)Gal(b1-4)GlcNAc(b1-2)Man(a1-6)[GlcNAc(b1-2)Man(a1-3)]Man(b1-4)GlcNAc(b1-4)GlcNAc", "summary_of_the_method": "as §1"}, "[8]": {"target": "Neu5Ac(a2-6)Gal(b1-4)GlcNAc(b1-3)Gal(b1-4)GlcNAc", "summary_of_the_method": "as §1"}, "[9]": {"target": "Neu5Ac(a2-6)Gal(b1-4)GlcNAc(b1-3)Gal(b1-4)[Fuc(a1-3)]GlcNAc(b1-3)Gal(b1-4)[Fuc(a1-3)]GlcNAc", "summary_of_the_method": "as §1"}, "[10]": {"target": "Neu5Ac(a2-6)Gal(b1-4)GlcNAc6S", "summary_of_the_method": "as §1"}, "Neu5Ac(a2-6)GalNAc": {"target": "Neu5Ac(a2-6)GalNAc", "summary_of_the_method": "as §1"}, "[11]": {"target": "Neu5Ac(a2-6)GalNAc(b1-4)GlcNAc", "summary_of_the_method": "as §1"}, "Neu5Ac(a2-8)Neu5Ac": {"target": "Neu5Ac(a2-8)Neu5Ac", "summary_of_the_method": "as §1"}, "[12]": {"target": "Neu5Ac(a2-8)Neu5Ac(a2-3)Gal(b1-4)Glc", "summary_of_the_method": "as §1"}, "[13]": {"target": "Neu5Ac(a2-8)Neu5Ac(a2-3)[GalNAc(b1-4)]Gal(b1-4)Glc", "summary_of_the_method": "as §1"}, "[14]": {"target": "Neu5Ac(a2-8)Neu5Ac(a2-8)Neu5Ac", "summary_of_the_method": "as §1"}, "[15]": {"target": "Neu5Ac(a2-8)Neu5Ac(a2-8)Neu5Ac(a2-3)Gal(b1-4)Glc", "summary_of_the_method": "as §1"}, "[16]": {"target": "Neu5Ac(a2-8)Neu5Ac(a2-8)Neu5Ac(a2-3)[GalNAc(b1-4)]Gal(b1-4)Glc", "summary_of_the_method": "as §1"}, "[17]": {"target": "Neu5Ac(a2-8)Neu5Ac(a2-8)Neu5Ac(a2-8)Neu5Ac(a2-3)[GalNAc(b1-4)]Gal(b1-4)Glc", "summary_of_the_method": "as §1"}, "[18]": {"target": "Neu5Ac(b2-6)Gal(b1-4)GlcNAc", "summary_of_the_method": "as §1"}, "Neu5Ac(b2-6)GalNAc": {"target": "Neu5Ac(b2-6)GalNAc", "summary_of_the_method": "as §1"}, "[19]": {"target": "Neu5Ac9Ac(a2-6)Gal(b1-4)GlcNAc", "summary_of_the_method": "as §1"}, "[20]": {"target": "Neu5Gc(a2-3)Gal(b1-3)GlcNAc", "summary_of_the_method": "as §1"}, "[21]": {"target": "Neu5Gc(a2-3)Gal(b1-3)[Fuc(a1-4)]GlcNAc", "summary_of_the_method": "as §1"}, "Neu5Gc(a2-3)Gal(b1-4)Glc": {"target": "Neu5Gc(a2-3)Gal(b1-4)Glc", "summary_of_the_method": "as §1"}, "[22]": {"target": "Neu5Gc(a2-3)Gal(b1-4)GlcNAc", "summary_of_the_method": "as §1"}, "[23]": {"target": "Neu5Gc(a2-3)Gal(b1-4)[Fuc(a1-3)]GlcNAc", "summary_of_the_method": "as §1"}, "[24]": {"target": "Neu5Gc(a2-6)Gal(b1-4)GlcNAc", "summary_of_the_method": "as §1"}, "Neu5Gc(a2-6)GalNAc": {"target": "Neu5Gc(a2-6)GalNAc", "summary_of_the_method": "as §1"}, "[25]": {"target": "Neu5Gc(b2-6)Gal(b1-4)GlcNAc", "summary_of_the_method": "as §1"}},
  "note": "Some of the results follow.",
  "data": [
    {"binder": "B1", "values": [
      {"measurement": "glycan array binding signal (z-score)", "setting": "[1]", "result": 0.157},
      {"measurement": "glycan array binding signal (z-score)", "setting": "[2]", "result": 0.107},
      {"measurement": "glycan array binding signal (z-score)", "setting": "[3]", "result": 1.19},
      {"measurement": "glycan array binding signal (z-score)", "setting": "[4]", "result": 0.001},
      {"measurement": "glycan array binding signal (z-score)", "setting": "[5]", "result": -0.1},
      {"measurement": "glycan array binding signal (z-score)", "setting": "[6]", "result": -0.234},
      {"measurement": "glycan array binding signal (z-score)", "setting": "[7]", "result": -0.261},
      {"measurement": "glycan array binding signal (z-score)", "setting": "[8]", "result": -0.422},
      {"measurement": "glycan array binding signal (z-score)", "setting": "[9]", "result": 0.625},
      {"measurement": "glycan array binding signal (z-score)", "setting": "[10]", "result": -0.041},
      {"measurement": "glycan array binding signal (z-score)", "setting": "Neu5Ac(a2-6)GalNAc", "result": -0.327},
      {"measurement": "glycan array binding signal (z-score)", "setting": "[11]", "result": -0.337},
      {"measurement": "glycan array binding signal (z-score)", "setting": "Neu5Ac(a2-8)Neu5Ac", "result": -0.267},
      {"measurement": "glycan array binding signal (z-score)", "setting": "[12]", "result": -0.474},
      {"measurement": "glycan array binding signal (z-score)", "setting": "[13]", "result": -0.319},
      {"measurement": "glycan array binding signal (z-score)", "setting": "[14]", "result": -0.576},
      {"measurement": "glycan array binding signal (z-score)", "setting": "[15]", "result": -0.189},
      {"measurement": "glycan array binding signal (z-score)", "setting": "[16]", "result": -0.152},
      {"measurement": "glycan array binding signal (z-score)", "setting": "[17]", "result": -0.546},
      {"measurement": "glycan array binding signal (z-score)", "setting": "[18]", "result": -0.4},
      {"measurement": "glycan array binding signal (z-score)", "setting": "Neu5Ac(b2-6)GalNAc", "result": -0.39},
      {"measurement": "glycan array binding signal (z-score)", "setting": "[19]", "result": -0.172},
      {"measurement": "glycan array binding signal (z-score)", "setting": "[20]", "result": -0.2},
      {"measurement": "glycan array binding signal (z-score)", "setting": "[21]", "result": -0.044},
      {"measurement": "glycan array binding signal (z-score)", "setting": "Neu5Gc(a2-3)Gal(b1-4)Glc", "result": -0.203},
      {"measurement": "glycan array binding signal (z-score)", "setting": "[22]", "result": -0.312},
      {"measurement": "glycan array binding signal (z-score)", "setting": "[23]", "result": -0.24},
      {"measurement": "glycan array binding signal (z-score)", "setting": "[24]", "result": -0.172},
      {"measurement": "glycan array binding signal (z-score)", "setting": "Neu5Gc(a2-6)GalNAc", "result": 1.3},
      {"measurement": "glycan array binding signal (z-score)", "setting": "[25]", "result": 0.242}
    ]}
  ]
}
